Assay results reported in the supplement of paper PMC7125110.
For some of these results: Variants at the floor of the assay are shown more often than the library holds them.

B1: glmS ribozyme (parent)
chain: AUAAAAGCGCCAGAACUACAGAAAUGUAGUUGACGAGGAGGAGGUUUAUCGAAUUUUCGGCGGAUGCCUCCAAA

Variants of: B1
Assay: self-cleavage kobs at 2500 uM GlcN6P; higher = faster cleavage; RNA array
Settings: with glucosamine-6-phosphate
In short: (§1)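 Barcoded ribozyme variants, transcribed in situ by E. coli RNA polymerase on sequenced MiSeq chips, were followed via a hybridised Cy3 probe at 37 °C. Glucosamine-6-phosphate ranged from 40 μM to 10 mM in HEPES/KCl/Mg(OAc)2 buffer. kobs came from decay fits to per-tile medians, and kcat and KM from weighted Michaelis–Menten fits.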

self-cleavage kobs at 2500 uM GlcN6P, < 1e-05 s⁻¹:
AUAAAAGCGCCAGAACUACAGAAAUGUAGUUGACCAGGAGAAGGUUUAUCGAAUUUUCUGCGGAUGCCUGCAAA
AUAAAAGCGCCAGAACUACAGAAAUGUAGUUGACGUGGAGGAGGUCUAUCGACUUUUCGGCGGAUGCCUCCAAA
AUAAAAGCGCCAGAACUACAGAAAUGUAGUUGACCAGGAGGAGGUUUAUCGACUUUUCGGCGGAUGCCUCCAAA
AUAAAAGCGCCAGAACUACAGAAAUGUAGUUGAAGAGGACGAGGUCAAUCGAAUUUUCCGCGGAUGCCUCCAAA
AUAAAAGCGCCAGAACUACAGAAAUGUAGUUGACGAAGAGUAGGCUUCUCGAAUUUUCGGCGGAUGCCUCCAAA
AUAAAAGCGCCAGAACUACAGAAAUGUAGUUGACGGGGAGGAGGUUUAUCGAAAUUUCGGCGGAUGCCUCCAAA
AUAAAAGCGCCAGAACUACAGAAAUGUAGUUGACGUGGAGGAGGUUUAUCGAAUGUUCGGUGGAUGCCUCCAAA
AUAAAAGCGCCAGAACUACAGAAAUGUAGUUGACCAGCCGGAGGUUUAACGAAUUUUCGGCGGAUGCCUCCAAA
AUAAAAGCGCCAGAACUACAGAAAUGUAGUUGAUGAGGAAGAGGUUUAUCGAACUUUCGGCGGAUGCCUCCAAA
AUAAAAGCGCCAGAACUACAGAAAUGUAGUUGAGGAGGAGCAGAUUUAUCGAAUUUUGGGCGGAUGCCUCUAAA
AUAAAAGCGCCAGAACUACAGAAAUGUAGUUGACGAUGAGGAGGUUUAUCGACUUUUCGGCGGAUGCCUCCAAA
AUAAAAGCGCCAGAACUACAGAAAUGUAGUUGACGAGAAGGAGGUUUAUCGAACUUUCGGCGGAUGCUUCCAAA
AUAAAAGCGCCAGAACUACAGAAAUGUAGUUGACGAAGAGGAGGUUUAUCGAAUUUUCGGCCGUUGCCUCCAAA
AUAAAAGCGCCAGAACUACAGAAAUGUAGUUGACGUCGAGGAGGUUUAUCGAAUUUUCCGCGGAUGCCUCCAAA
AUAAAAGCGCCAGAACUACAGAAAUGUAGUUGACGACGAGGAGAUUUAUCGAAAUUUCGGCGGAUGCCUCCAAA
AUAAAAGCGCCAGAACUACAGAAAUGUAGUUGAAGAGGAGGAAGUUUAUCGAAUUUUCGGCGGGUGCCUCCAAA
AUAAAAGCGCCAGAACUACAGAAAUGUAGUUGACUAGGAGGAGGUUUAACGAAUUUUCGGCGGAUGCCUCCAAA
AUAAAAGCGCCAGAACUACAGAAAUGUAGUUGACGAGCAGGAGGUUUAUCGAUUUUUCGGCGGAUGCCUCCAAA
AUAAAAGCGCCAGAACUACAGAAAUGUAGUUGACAAGGAGGAGGUUUAUCGAAUUUUCGGCGGAUGCCGCCAAA
AUAAAAGCGCCAGAACUACAGAAAUGUAGUUGACGUGGAUGAGGUUUAUCGAAUUUUCGGCGGCUGCCUCCAAA
AUAAAAGCGCCAGAACUACAGAAAUGUAGUUGACGAUGAGGAGUUUUAUCGAAUUUUCAGCGGAUGCCUUCAAA
AUAAAAGCGCCAGAACUACAGAAAUGUAGUUGACGUGGACGAGGUUUAUCGUAUUUUCGGCGGAUGCCUCCAAA
AUAAAAGCGCCAGAACUACAGAAAUGUAGUUGACAAGGAGGAGGUUUAUUGAAUUUUCGUCGGAUGACUCCAAA
AUAAAAGCGCCAGAACUACAGAAAUGUAGUUGACGGGGAGGAGGUUUUUCGAAUUUUCGGCGGAUGGCUCCAAA
AUAAAAGCGCCAGAACUACAGAAAUGUAGUUGUCGAGGAGGAGGUUUAUCGAAUUUUCGGUGGAUGACUCCAAA
AUAAAAGCGCCAGAACUACAGAAAUGUAGUUGACGAGAAGGAGGUUUAUCGUAUUUUCGGCGGAUGCCUCGAAA
AUAAAAGCGCCAGAACUACAGAAAUGUAGUUGAUGAGGAGGAUGUUUAUCGAAUUGACGGCGGAUGCCUCCAAA
AUAAAAGCGCCAGAACUACAGAAAUGUAGUUGACCAGGUGGAGGUUUUUCGAAUUUUCGGAGGAUUCCUCCAAA
AUAAAAGCGCCAGAACUACAGAAAUGUAGUUGACGUGGAGGAGGGGUAUCGAAUUUUCGGCGGAUGCGUCCAAA
AUAAAAGCGCCAGAACUACAGAAAUGUAGUUGACGAUCAGGAGGUUUAUCGAAUCUUCGGCGGAUGCCUCCAAA
AUAAAAGCGCCAGAACUACAGAAAUGUAGUUGACAAGGAGGAGGUUUAUCGAGUUUUUGGCGGAUGCCUCCAAA
AUAAAAGCGCCAGAACUACAGAAAUGUAGUUGACGUGGAGGGGGUUUAUCGAAUUUUCGGCGUAUGCCUCCAAA
AUAAAAGCGCCAGAACUACAGAAAUGUAGUUGAGGAGGACGAGGUUGAUCGAAUUUUCGGCGGAUGCCUCCAAA
AUAAAAGCGCCAGAACUACAGAAAUGUAGUUGACGCGGAGGAGUUUUUUCGAAUUUUCGGCGGAUGCGUCCAAA
AUAAAAGCGCCAGAACUACAGAAAUGUAGUUGAUGAGGAGGAGGCUUAUCGAAUUUUCCGCGGAUGCCUCCAAA

Variants of: B1
Assay: self-cleavage kobs at 10000 uM GlcN6P; higher = faster cleavage; RNA array
Settings: with glucosamine-6-phosphate
In short: as §1

self-cleavage kobs at 10000 uM GlcN6P, < 1e-05 s⁻¹:
AUAAAAGCGCCAGAACUACAGAAAUGUAGUUGACGAUGAGGAGGUUUAUCGACUUUUCGGCGGAUGCCUCCAAA
AUAAAAGCGCCAGAACUACAGAAAUGUAGUUGACGAGCAGGAGGUUUAUCGAUUUUUCGGCGGAUGCCUCCAAA
